Measurements from ChEMBL document CHEMBL4888484, “Replenishing the malaria drug discovery pipeline: Screening and hit evaluation of the MMV Hit Generation Library 1 (HGL1) against asexual blood stage Plasmodium falciparum ,using a nano luciferase reporter read-out” (2022).
Among all 150,000 compounds or so, about 540 (0.36%) showed an effect of 50% or more. Some of the results follow.

What follows are compounds tested on Plasmodium falciparum (assay: Primary screen in NF54 nanoGlo assay, in single point, at 2uM, 72h; a lower Z score goes with more inhibition). Conditions: timepoint 72 hour.
Type: functional, Erythrocyte

Structure (SMILES)	% Inhibition	Z score
CN(c1ccc(Br)cc1)S(=O)(=O)c1ccc2c(c1)CCN2C(=O)C1CCC1	34%	-4.56
CCOC1CC(c2nc(-c3ccsc3)no2)C1 (centres undefined)	-9%	1.29
Nc1ncccc1CNC(=O)c1nc(C2CC2)ncc1Br	4%	-0.57
CCCc1nnc(N2CCC[C@]3(CCCN(C)C3)C2)o1	-14%	1.48
CC(=O)N1CCN(C2CN(C(C)c3nc(C4CC4)no3)CC2C)CC1 (centres undefined)	-14%	1.24
CN1CCCN(C(=O)c2ccnc(OCC3CC3)c2)CC1	-10%	1.83
Cc1oncc1C(=O)NCc1cc(-c2cccnc2)nn1C	-5%	0.87
CC(C)=CCO[C@H]1CCOC[C@H]1NC(=O)c1c[nH]c2cc(C)nn2c1=O	-7%	1.28
CC(C)[C@H](Nc1ncnc2ccccc12)C(=O)NCc1ccccn1	7%	-0.86
O=C(Nc1ccc2c(c1)CCC2)c1coc(CN2CCN(C[C@H](O)c3ccccc3)CC2)n1	-4%	0.67
CCc1ccc(CN2CCc3c(C(=O)NCC4CCNCC4)csc3C2)nc1	-5%	0.68
O[C@H]1C[C@@H](c2cc(N3CCCC4(CCOCC4)C3)ncn2)C1	-2%	0.2
Cc1ncnc(NCc2csc(N3CCOCC3)n2)c1C	0%	0.07
C[C@@H]1CN(CCCNC(=O)c2cccc(-c3cccc(C#N)n3)c2)C[C@H](C)O1	-11%	1.51
CCCOc1c(Cl)cc(CNc2ccnc(C(=O)N3CCC(O)CC3)c2)cc1OCC	-8%	1.19
CC(C)(C)NC(=O)NC(=O)CNC(C)(C)COc1ncccc1Br	-1%	0.16
CC(C)c1ccc(N2C(=O)CN(CCC3=CCCCC3)[C@H]3CS(=O)(=O)C[C@H]32)cc1	-10%	1.35
O=C(Nc1ccc2c(c1)OC1(CCCCC1)O2)[C@@H]1CCCO1	-11%	1.07
COc1ccc(F)c(NCc2noc([C@@H]3COc4ccccc4O3)n2)c1	-3%	0.53
COC(=O)C1(NCc2nc(N(C)C)no2)CCCCCC1	-12%	1.67
CS(=O)(=O)N1CCC[C@@H]1CNc1ccc(Br)cn1	-16%	1.96

Structure (SMILES)	% Inhibition	Z score
OCC[C@H]1CN(Cc2cc(C3CC3)on2)CCN1CC1CC1	-3%	0.49
CC(C)CS(=O)(=O)C1CN(S(=O)(=O)Cc2cccc(F)c2)C1	-20%	2.53
Cc1ncc(-c2cc(C(=O)N3CCc4ccccc4C3)c3ccccc3n2)cn1	-10%	1.55
Cn1cc(S(=O)(=O)N2CCC(C(=O)NCc3ccccc3)CC2)c(=O)n(C)c1=O	4%	-0.43
Cc1cc(-n2c(C)cc(CNCC3(N4CCOCC4)CCCCC3)c2C)no1	1%	-0.31
COc1cc([C@H](C)Nc2cc(C)ncn2)ccc1F	-5%	0.84
CCOc1ncccc1C(=O)N1CCC[C@H]1c1nc2ccccc2s1	-5%	0.65
CN(Cc1cc(C2CC2)n[nH]1)CC1(CO)CCC1	5%	-0.84
O=C1[C@@H]2C(c3ccc(F)cc3)=NO[C@@H]2C(=O)N1c1ccc(Cl)cc1Cl	-5%	0.88
CN1CCN([C@H]2CCN(c3nccnc3C#N)C2)CC1	-4%	0.36
CC(C)c1nsc(N[C@@H](C)c2cnccn2)n1	2%	-0.29
Cc1nc(N2CCN(C(=O)c3cc4n(n3)CCCO4)CC2)cc(C(F)(F)F)n1	-9%	1.16
C[C@@H]1CN(C(=O)c2ccc3nc(-c4ccc(F)cc4)cn3c2)C[C@H](C)O1	-11%	1.14
COC1(c2nc(Cc3cccnc3)no2)CCOCC1	-3%	0.52
CC(=O)Nc1nc(CS(=O)(=O)Cc2cc(C)no2)cs1	-5%	0.93
CCN1CCN(C[C@@H](C)CNC(=O)c2cc(C)nc3c2c(=O)[nH]n3C)CC1	-5%	0.96
O=C1C[C@H](Cn2ncc3ncccc32)CN1	-14%	1.44
CCn1cnnc1C[C@H]1CCN(C(=O)c2ccc3ccccc3n2)C1	-15%	2.64
CC1(C(=O)Nc2n[nH]c3cc(F)ccc23)CC2CCC1O2 (centres undefined)	-7%	1.08
Cn1ccnc(N2CCC(=C3CC3)CC2)c1=O	0%	0.05
CC(C)C(CO)NC(=O)C1CC(=O)N(Cc2ccc3c(c2)OCO3)C1 (centres undefined)	0%	0
